The list shows a part of the results.

Results on 57 sequences are retold here after the supplement of paper PMC11417369.

This test deals with PF3D7_0420300 AP2 domain 1 (GST-tagged). In words: gcPBM binding intensity (ln(normalized median fluorescence intensity)); higher = stronger DNA binding. Put shortly:
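Binding intensity values are the highest Masliner-normalised natural-log median intensity among replicate spots of either probe orientation. The binding step lasted 1 h in 1× PBS with 1% milk, 0.2 mg/ml BSA, 0.5% salmon testes DNA and 0.03% Triton X-100, using GST-tagged P. falciparum DNA-binding domains expressed in E. coli on an Agilent 4 × 180k array of primer-extended double-stranded 36-bp intergenic genomic probes plus negative controls. Alexa488 anti-GST antibody and a 488 nm scan detected bound protein.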
As for “TATTTTTATTTTACATTATTTGTTTATAATTCTTAA [CACACA_negctrl_site1358]”, the “gcPBM binding intensity (ln)” value was found to be 9.27.
Take “AAAAAAAAAAAAAACACACAAACAAATGAATAAATA [CACACA_site3300]”: the “gcPBM binding intensity (ln)” value was determined as 9.77.
Under “GAGTTTTAATGTAATAGTACTTTAATTATTATATAT [XGTACX_site4527]” stands 9.37; under “TTTTTTTTTTATTCATGTACGTATTTAAATAATTCT [XGTACX_site2651]”, 9.22; under “ATCTTTTATATATTCACACATAAAATTATACAGATA [CACACA_site5277]”, 9.26.
As to “GACAAATGAAAAGATTGTACATGTATTTGAAGATTA [XGTACX_site6775]”, the “gcPBM binding intensity (ln)” value was 9.15.
Take “TACACAAAAATTTATACACACACATATATAATATAT [CACACA_site7931]”: the “gcPBM binding intensity (ln)” value turned out to be 9.98.
With “TGATTATATATAAATGTATGCATGTCTATTATGCTA [TGCATGCA_site543]”, the “gcPBM binding intensity (ln)” value is 9.03.
With “TCTTTTATATTTTTTTGTACACAAGAATAAAGAAAA [XGTACX_site3394]”, the “gcPBM binding intensity (ln)” value stood at 8.86.
Under “TATATATATATATATTGTACACATACATGTAGTTTT [XGTACX_site4848]” stands 9.46; under “TATATATATATATAGGTGCAATATTGAAAAAATATC [GTGCAC_site9535]”, 9.42; under “AAAGTAATATATAATACATGCGTAAATATTTATGTA [TGCATGCA_site254]”, 9.31.
“TCTTCTTTAAAAGAGGTGCACTATATAATGTGATTA [GTGCAC_site9431]”: the “gcPBM binding intensity (ln)” value is 8.97.
As to “TAATTATACTTATTTTGTACGCAATATTTAAAATAA [XGTACX_site8516]”, the “gcPBM binding intensity (ln)” value came out at 9.02.
As for “ATTTCTCTATCGTAATGTACAAAAAAAAGGAAAAAA [XGTACX_site1323]”, the “gcPBM binding intensity (ln)” value was found to be 9.
With “ACATATAAATGATATGTACACACATTTATATATATA [CACACA_site9152]”, the “gcPBM binding intensity (ln)” value amounted to 9.45.
Regarding TTTTTAACGTATAAGGTGCACTGTATATGGTACTCA, the “gcPBM binding intensity (ln)” value is 9.1.
Under “TTTTGGATGAACAGTACATGCAAAAACAAACTTGTA [TGCATGCA_site16]” stands 9.03.
Then “TGCTTCTTTTAAAAACATGTTTGTATTCATTTTATA [CACACA_negctrl_site1627]”, with 9.43.
Turning to “ACAAAAAGTTACATACGTACGTAAAATTGTAATAAA [XGTACX_site2358]”, the “gcPBM binding intensity (ln)” value was 9.27.
As to “ATTATATTATATATATGTACATATATATATCATAAT [XGTACX_site1]”, the “gcPBM binding intensity (ln)” value was 9.13.
With “ATAATACCATTAATTTGTACATATATATTATATATA [XGTACX_site4345]”, the “gcPBM binding intensity (ln)” value came out at 9.31.
On to “AAATGTGAAAAAGAGTGTACCCGACTTGAAATTAAG [XGTACX_site8621]”, for which the “gcPBM binding intensity (ln)” value amounted to 9.43.
Under “AGTAGAATATCCCCTACACACCCAAGTAATTTACAA [CACACA_site6708]” stands 9.7; under “AATTAAAAGTGAAGAGTGCATAGAATTTTTTACTTT [GTGCAC_site9973]”, 9.27; under “TTTAATTTTCAATGGCGTACATATAAAATATTATAT [XGTACX_site1672]”, 9.01.
Then “GATGAATAATATGTATGTACATATGCATTATGATGT [XGTACX_site7655]”, with 9.42.
Then “ATATGCACTTTTTGCACACGTATGAATAACAAAATA [CACACA_site1810]”, with 9.19.
Regarding “ACATATAGATAAATATGTACATATATATATATATAT [XGTACX_site1806]”, the “gcPBM binding intensity (ln)” value came to 9.22.
Then “TGTAATATATGTATTGCACACCTATAACCATTATTT [CACACA_site8422]”, with 9.55.
Turning to “TATAAGTGCCGTTATACACACGTTATATAAATATTA [CACACA_site4401]”, the “gcPBM binding intensity (ln)” value is 9.26.
Then “ATAATTATATTTAGTGGTACTACTTTTGATAATTAG [XGTACX_site6562]”, with 9.14; and “TTCTTGTTCCTGAAAGTGCATATAACAAAAATAACA [GTGCAC_site9635]”, with 9.01.
Under “ATAATTACATTCCATACACACATATATTTAAAGGTT [CACACA_site7403]” stands 9.6; under “AATGATATATTTAAATGTACACATGAAATATAATAT [XGTACX_site2678]”, 9.45; under “TTATATTTGATAGTTTGTACATATAATTATTATCAT [XGTACX_site5676]”, 9.31.
Under “TATCTTCAAGTATGTACACACTATATATAATAAAAT [CACACA_site5368]” stands 9.33; under “TTATCATATCATGGAAGTACAAATAAAATATATAAC [XGTACX_site1608]”, 9.43; under “TTTTCTGTGTTTACATGTACGAAAGATTAATATTAT [XGTACX_site5214]”, 9.22.
Consider “ATTTGATAGACACATGCACACATGCAATACTTTATT [CACACA_site5633]”, for which the “gcPBM binding intensity (ln)” value turned out to be 9.43.
For “ATATATATATATATATCACACATTAATAATATATAT [CACACA_site5081]”, the “gcPBM binding intensity (ln)” value is 9.15.
For “TATATAAAAATATACACACACAAATGTATATATATA [CACACA_site220]”, the “gcPBM binding intensity (ln)” value worked out at 9.68.
Regarding “TACATACATACATACACACACATATAGATTTATATA [CACACA_site6999]”, the “gcPBM binding intensity (ln)” value was determined as 9.93.
Under “TTTTTTTTTTTTTTTAAACACACGGTGTGAAAATTA [CACACA_site3818]” stands 8.79.
Then “TCTTTATTATTCGCCACACACATATAAATATAAATA [CACACA_site7441]”, with 9.59.
“AAAACATAACATTGTTGTACTACTAATAAAATAAGT [XGTACX_site6149]”: the “gcPBM binding intensity (ln)” value was determined as 9.36.
Under “ATAATTTTGTATAATTGTACATTATTTTAAATAAAT [XGTACX_site7952]” stands 9.07; under “ATCAATCATGGTTTTACACACACATGCATGTGAAAA [CACACA_site1350]”, 9.7.
In the case of “AAAAAAAAAAAAAACACACACACATAGACCTCCAAT [CACACA_site3563]”, the “gcPBM binding intensity (ln)” value came to 10.1.
For “ATAACGAACACTATTACACACATACATACATATGTA [CACACA_site5092]”, the “gcPBM binding intensity (ln)” value came out at 9.67.
Turning to TTTTTTGTTACAACAGTGCAAAAAAACCTTAATGTT, the “gcPBM binding intensity (ln)” value was determined as 8.87.
For the sequence “ATATATATATATATATGTACATACAATTATATTCTC [XGTACX_site1133]”, the “gcPBM binding intensity (ln)” value came out at 9.35.
Under “AATCTTCTTAATTGTAGTACACAATTTATAAACAAA [XGTACX_site8706]” stands 8.94.
As for “TACATAAATTTTAATACATGCAAATAAAATATATAA [TGCATGCA_site131]”, the “gcPBM binding intensity (ln)” value came to 9.11.
With “AAAAATCATTTAAGAACACACAAATATTTCCATTAA [CACACA_site1488]”, the “gcPBM binding intensity (ln)” value was determined as 9.35.
As to “AATAGTTATTCCAGGTGTACATAACATATAATTTAC [XGTACX_site1340]”, the “gcPBM binding intensity (ln)” value worked out at 9.31.
With “ATCAAAAGAAGACACACACACATACCTATAAATATA [CACACA_site7736]”, the “gcPBM binding intensity (ln)” value was 9.97.
